Here are results for 94 molecules from PubChem BioAssay AID1159614 (National Center for Advancing Translational Sciences (NCATS), 2016).

Screen size: about 45,000 compounds; about 65 (0.1%) were called active. Calls follow the shape of the dose curve; as a rule, active = well fitted activation curve with a large enough effect; inconclusive = small, poorly fitted or top-dose-only effect; inactive = no such curve, though single readings can be large or run the other way. The list shows a part of the results.

This experiment deals with Galactocerebrosidase (Homo sapiens) (UniProt P54803). Nature of the experiment: A Novel Cell-Based Assay to Identify Small Molecules for B -Galactocerebrosidase. Also: 0% is about no effect; nearly all actives have a fitted effect of over 65% in size. Conditions: 145M-Twi-hGALC-G270D cells (Twitcher mouse brain line with human GALC G270D), HMU-beta-Gal fluorescence, 48 h; series mostly up to 57.5 µM; activation: at the top concentration. Summed up: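 Fluorescence readout: HMU-β-gal cleavage by mutant GALC (0.1 mM final, citrate/phosphate pH 5.2 with 1 mg/mL taurocholate), stopped with carbonate/bicarbonate plus Triton X-100. Cells: murine Twitcher 145M-Twi expressing human G270D GALC; qHTS for activators.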
UniProt P54803, sequence (P54803 whole entry, looked up): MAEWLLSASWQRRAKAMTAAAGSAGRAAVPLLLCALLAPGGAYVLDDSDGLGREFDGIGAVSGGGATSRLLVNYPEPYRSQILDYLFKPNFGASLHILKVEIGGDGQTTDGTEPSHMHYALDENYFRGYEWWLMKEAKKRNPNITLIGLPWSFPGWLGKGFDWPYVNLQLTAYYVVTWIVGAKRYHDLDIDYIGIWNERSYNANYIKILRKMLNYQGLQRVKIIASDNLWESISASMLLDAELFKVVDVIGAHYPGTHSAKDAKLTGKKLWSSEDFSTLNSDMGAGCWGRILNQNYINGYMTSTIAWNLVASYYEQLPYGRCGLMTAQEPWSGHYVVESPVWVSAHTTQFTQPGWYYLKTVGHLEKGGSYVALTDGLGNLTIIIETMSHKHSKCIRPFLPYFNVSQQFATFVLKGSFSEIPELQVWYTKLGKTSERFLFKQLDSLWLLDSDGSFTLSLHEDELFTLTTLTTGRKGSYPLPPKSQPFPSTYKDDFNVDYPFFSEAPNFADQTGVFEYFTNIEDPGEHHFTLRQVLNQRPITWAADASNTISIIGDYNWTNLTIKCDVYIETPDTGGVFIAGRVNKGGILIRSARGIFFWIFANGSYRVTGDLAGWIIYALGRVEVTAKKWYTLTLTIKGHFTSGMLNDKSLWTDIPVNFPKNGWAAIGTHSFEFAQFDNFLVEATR
On to `CCC(=O)N1CCc2cc(Br)cc(S(=O)(=O)N3CCN(c4cc(C)ccc4C)CC3)c21`, for which the “activation” value was inactive: -9.34%.
Then `CCOC(=O)c1cc(-c2ccc(C)cc2)n(CCC(=O)NCCc2ccc(C)cc2)c1C`, with inactive: -9.3%; and `Cc1cccc(C)c1NC(=O)CCC(=O)N1Cc2ccccc2Oc2ncccc21`, with inactive: -24.7%; and `CCC(=O)N1CCc2cc(Br)cc(S(=O)(=O)CCC(=O)Nc3ccc(Cl)cc3)c21`, with inactive: -4.48%.
Then `COc1cc(-c2cc3n(C)c(C)c(CCC(=O)NC4CCCCC4)c(=O)n3n2)cc(OC)c1OC`, with inactive: -4.2%; and `CCN(CC)CCNC(=O)c1cn(CC)c2ccc(S(=O)(=O)N3CCc4ccccc4C3)cc2c1=O`, with inactive: -23.8%; and `O=C(NC1CCN(Cc2ccccc2)CC1)c1ccc(Cn2c(=O)c3ccccc3n(Cc3cccc(F)c3)c2=O)cc1`, with inactive: -3.67%.
In the case of `CC(=O)N(CC(O)CO)c1c(I)c(C(=O)NCC(O)CO)c(I)c(C(=O)NCC(O)CO)c1I` (centres undefined), the “activation” value is inactive: -20.5%.
Then `COc1ccc(Oc2nc3c(c(=O)n(C)c(=O)n3C)n2Cc2ccc(Cl)cc2Cl)cc1`, with inactive: -16.6%; and `O=C(Nc1ccccc1C(=O)OCc1cc(=O)n2ccsc2n1)c1ccccc1Cl`, with inactive: -4.54%; and `COCCn1c(=N)c(C(=O)NC2CCCC2)cc2c(=O)n3cc(C)ccc3nc21`, with inactive: -10.5%.
For `CCOc1ccccc1CNC(=O)c1oc2c(c1C)-c1nn(Cc3cccc(Cl)c3)cc1CC2` the value was inactive: -45.3%; for `Cc1cccc(C(=O)NCc2nc3ccccc3n2Cc2ccccc2Cl)c1`, inactive: -11.8%; for `Cc1ccc2c(=O)c(C(=O)c3ccc(Cl)cc3)cn(CC(=O)Nc3ccc4c(c3)OCCO4)c2n1`, inactive: -16.9%.
For `O=C(Nc1cccc(OCc2cc(=O)n3ccccc3n2)c1)Nc1cccc(C(F)(F)F)c1` the value was inactive: -0.33%; for `Cc1ccc(NC(=O)C2CCCN2S(=O)(=O)c2cccc3cccnc23)c(C)c1` (centres undefined), inactive: 6.4%; for `O=C(Cc1ccc(NC(=O)N2CCSc3ncccc32)cc1)NCc1cccc(Cl)c1`, inactive: -15.7%.
`COc1ccc(CCNC(=O)C2c3ccccc3C(=O)N2Cc2ccccc2)cc1OC` (centres undefined): the “activation” value is inactive: -11.6%.
For `CCOc1ccc(CNC(=O)C2=Cc3cccc(OC)c3OC2)cc1` the value was inactive: -0.162%; for `COc1ccc(Cl)cc1C(=O)NCCS(=O)(=O)N1CCN(c2ccccc2OC)CC1`, inactive: -6.68%.
Regarding `COc1cccc(NC(=O)Cn2c(=O)n(Cc3ccc(C(=O)NCc4ccc(C)cc4)cc3)c(=O)c3ccccc32)c1`, the “activation” value is inactive: -6.57%.
`CCOc1ccc(Cn2c(CNS(=O)(=O)c3ccc(C(C)(C)C)cc3)nc3cccnc32)cc1`: the “activation” value was inactive: -3.4%.
For `CCOC(=O)c1c(C)n(-c2ccccc2)c2ccc(OC(=O)c3c(F)cccc3F)cc12` the value was inactive: 2.69%; for `COc1c(C)cc(NS(=O)(=O)c2ccc3c(c2)OCCO3)cc1C`, inactive: -13.6%; for `CCOc1ccc(NC(=O)CCNS(=O)(=O)c2cccs2)cc1`, inactive: -8.25%.
Then `O=C(CN1C(=O)C2(SCC(=O)N2c2ccc(F)c(F)c2)c2ccccc21)Nc1cccc(Cl)c1` (centres undefined), with inactive: -16.9%.
Then `Cc1ccccc1OCC(=O)Nc1ccc2nc(SCC(=O)N3CCOCC3)sc2c1`, with inactive: -9.94%; and `Cc1cc(Nc2ccccc2O)nc(C)n1`, with inactive: -10.5%.
Consider `COc1ccc(NC(=O)CCCN2C(=O)CCn3nc(-c4cn(C)c5ccccc45)cc32)cc1`, for which the “activation” value was inactive: -13.4%.
For `Cc1ccc(C)c(S(=O)(=O)n2nc(C)c(S(=O)(=O)N3CCCCCC3)c2C)c1` the value was inactive: 0.984%.
Then `COc1ccc(CNC(=O)C2CCN(C(=O)N3CCOc4ccc(Cl)cc43)CC2)cc1`, with inactive: -3.78%; and `CCOc1ccc(C(=O)NCc2nc(-c3ccc(Cl)cc3)no2)cc1OCC`, with inactive: -7.97%; and `CCOC(=O)c1cnc2ccc(OC)cc2c1Nc1cccc(C(C)=O)c1`, with inactive: -0.0751%.
For `Cc1cccc(NC(=O)C2CCN(S(=O)(=O)c3c(C)noc3/C=C/c3ccco3)CC2)c1` the value was inactive: -1.43%.
Turning to `CCN(Cc1ccccc1)S(=O)(=O)c1ccc(F)c(C(=O)Nc2cc(C)ccc2OC)c1`, the “activation” value is inactive: 3.35%.
For `O=C(OCC1CCCO1)c1ccc2c(c1)N(Cc1ccc(F)cc1)C(=O)c1ccccc1S2(=O)=O` (centres undefined) the value was inactive: -11.4%.
Then `COc1cc(OC)c(N(C)C(=O)c2cc3c(s2)-c2ccccc2OC3)cc1Cl`, with inactive: 3.03%.
For `COc1ccc2c(CNCc3cccs3)c(C(=O)O)n(Cc3ccccc3C)c2c1` the value was inactive: -20.8%.
For the molecule `CCC(Sc1nc2ncccc2[nH]1)C(=O)Nc1ccccc1F` (centres undefined), the “activation” value is inactive: -21.5%.
Then `CCC(=O)NCc1nc2ccccc2n1Cc1ccccc1`, with inactive: -12.8%; and `Cc1ccc(Cl)cc1NC(=O)N1CCC(CN2CCc3ccccc3C2)CC1`, with inactive: -17.5%.
Then `COC(=O)c1ccc2c(=O)n(CCCCCC(=O)N3CCN(c4cccc(C)c4C)CC3)c(=O)[nH]c2c1`, with inactive: -16.6%; and `CCOc1ccc(NC(=O)c2cc3nc(-c4ccc(OC)cc4)cc(C(F)(F)F)n3n2)cc1`, with inactive: -21.1%.
For `Cn1nc(-c2ccccc2F)c2cc(C(=O)N3CCN(c4ccccc4F)CC3)sc21` the value was inactive: -9.92%; for `CCOC(=O)c1c(C)[nH]c(C)c1S(=O)(=O)N1CCC(C(=O)NCc2ccc(OC)cc2)CC1`, inactive: -12%.
Consider `Cc1c(NC(=O)Cc2ccccc2)cccc1-c1nc2cccnc2s1`, for which the “activation” value was inactive: -20.1%.
For `COCCCNc1nc2c(-c3cccc(Br)c3)nnn2c2ccccc12` the value was inactive: -7.5%; for `Cn1cccc1-c1cc2n(n1)CCC(=O)N2CC(=O)Nc1ccc(F)cc1Cl`, inactive: -1.42%.
Then `CCCCOc1ccc(C(=O)Nc2ccc3c(c2)N(C(C)=O)CCC3)cc1`, with inactive: -5.88%.
Then `CCOc1cc(CNc2ccc(O)cc2)cc(Cl)c1OCc1ccccc1`, with inactive: -14%; and `Cc1ccc(S(=O)(=O)N2CCCc3cc(NC(=O)c4cccc(Cl)c4)ccc32)cc1`, with inactive: -10.4%.
`Cc1cccc(-c2cc(-c3ccccc3)nc(SCC(=O)Nc3ccccc3)c2C#N)c1`: the “activation” value is inactive: -8.46%.
For `CCC(Cn1nnc2ccccc2c1=O)NC(=O)Nc1ccccc1Cl` (centres undefined) the value was inactive: -13.6%; for `Cc1ccc(S(=O)(=O)N(CC(O)Cn2c3ccccc3c3ccccc32)c2cccc(C(=O)NCCO)c2)cc1` (centres undefined), inactive: -7.11%.
With `O=C(CSc1nc2c([nH]c3ccccc32)c(=O)n1-c1ccc(F)cc1)Nc1ccc2c(c1)OCCO2`, the “activation” value is inactive: -10.9%.
For `CCS(=O)(=O)N1CCc2cc(C(=O)NCc3ccc(C)cc3)ccc21` the value was inactive: 4.19%; for `CCOC(=O)N1CCN(CCC(=O)Nc2cccc(F)c2)CC1`, inactive: -18%.
Take `COc1ccc(-c2nc3n(n2)C(c2ccccc2)C(C(=O)Nc2cccnc2)=C(C)N3)cc1` (centres undefined): the “activation” value was inactive: -18.5%.
For `COCCNC(=O)CN1C(=O)CCn2nc(-c3cn(C)c4ccccc34)cc21` the value was inactive: -9.06%.
In the case of `Cc1c(C(=O)NCc2ccc(Cl)cc2)sc2nc3n(c(=O)c12)CCC3`, the “activation” value was inactive: -14.9%.
Then `COc1ccc2c(Sc3ccc(C)cc3)c(C(=O)NC(C)c3ccccc3)[nH]c2c1` (centres undefined), with inactive: -17.5%; and `CCc1ccccc1NC(=O)c1ccc(F)c(S(=O)(=O)N2CCN(c3ccccc3OC)CC2)c1`, with inactive: -3.64%.
Then `CC(=O)N(CC(O)CO)c1c(I)c(C(=O)NCCO)c(I)c(C(=O)NCC(O)CO)c1I` (centres undefined), with inactive: -13.8%; and `Cc1c(C(=O)O)oc2c1-c1nn(Cc3ccccc3Cl)cc1CC2`, with inactive: -11.7%.
As for `COc1cc([C@@H]2Nc3c(F)cccc3[C@@H]3C=CC[C@@H]32)cc(Br)c1OC`, the “activation” value is inactive: -7.67%.
For `O=C(Nc1nc2c(F)cccc2s1)c1ccc2c(c1)OCCO2` the value was inactive: -16.3%.
For `Cc1ccc(CNC(=O)Cn2c(-c3cccs3)cc3cc(Cl)ccc32)cc1` the value was inactive: -15%.
Then `CCOC(=O)CCNC(=O)N1CCN(S(=O)(=O)c2ccc3c(ccn3C)c2)CC1`, with inactive: 0.96%.
With `CC(=O)c1ccc(NC(=O)c2cc3c(=O)oc4ccc(C)cc4c3s2)cc1`, the “activation” value is inactive: -54.2%.
Take `Cc1ccc(N2C(=O)C(CC(=O)Nc3ccc(F)cc3)N(Cc3ccc4c(c3)OCO4)C2=O)cc1` (centres undefined): the “activation” value is inactive: -17.6%.
Then `Cc1ccc(CNC(=O)c2ccc3c(c2)NC(=O)C(CS(=O)(=O)Cc2cccc(F)c2)N3)cc1` (centres undefined), with inactive: 10.6%; and `Cc1ccc(Sc2ccc(N3CCC(C(=O)Nc4ccc(Cl)cc4)CC3)nn2)cc1`, with inactive: -13.5%; and `CCc1ccc(C(=O)c2cn(CC(=O)NCc3ccc(C)cc3)c3nc(C)ccc3c2=O)cc1`, with inactive: 7.88%.
For `Cc1ccc(C(=O)Nc2ccc(S(=O)(=O)N(Cc3ccccc3)c3ccccc3)cc2)cc1` the value was inactive: -12.5%; for `Cc1cccc(N2C(=O)C(CC(=O)Nc3cccc(F)c3)N(CCc3ccncc3)C2=O)c1` (centres undefined), inactive: -2.42%.
Then `O=S(=O)(c1ccc(Cl)cc1)c1nc(-c2ccccc2F)oc1NCc1ccccc1`, with inactive: -7.18%; and `COc1ccc(NC(=O)C2=CC(c3ccc4c(c3)OCO4)=NS(=O)(=O)N2C)cc1OC`, with inactive: -8.87%.
Consider `O=C(CSCn1nnc2c(=O)[nH]c(Cc3ccc(F)cc3)nc21)Nc1ccccc1`, for which the “activation” value is inactive: -26.3%.
For `COc1ccc(-c2noc(-c3ccc(NCc4cccnc4)c([N+](=O)[O-])c3)n2)cc1OC` the value was inactive: -17.4%; for `Cc1cc(C)cc(-n2c(C)nc3cc(C(=O)O)ccc32)c1`, inactive: 5.22%; for `CCOc1ccc(C2=CC(c3cccc(Br)c3)n3c(nc4ccccc43)N2)cc1Cl` (centres undefined), inactive: -12.6%.
For `Cc1ccccc1OCCn1c(=N)n(C(C)C)c2ccccc21` the value was inactive: -11.3%.
For `Cc1ccc(N2CCN(C(=O)C3CCN(S(=O)(=O)c4ccc5c(c4)oc(=O)n5C)CC3)CC2C)cc1` (centres undefined) the value was inactive: -33.9%.
For the molecule `O=c1c2sc3ccccc3c2n(Cc2cccc(Cl)c2)c(=O)n1Cc1ccco1`, the “activation” value was inactive: -2.99%.
`Cc1cc(C)c(S(=O)(=O)NCCc2cc3ccc(C)c(C)c3[nH]c2=O)c(C)c1`: the “activation” value was inactive: -4.85%.
Then `CC(=O)c1ccc(NC(=O)CCc2c(C)nn(-c3ccc(N4CCOCC4)nn3)c2C)cc1`, with inactive: -4.22%.
For the molecule `Cc1cccc(OCc2nc(CC(=O)Nc3ccc(C)c(C)c3)cs2)c1`, the “activation” value is inactive: -12.4%.
For `CCOc1ccc(NC(=O)C2CCN(C(=O)N3CC(C)Oc4ccc(Cl)cc43)CC2)cc1` (centres undefined) the value was inactive: -4.91%.
For `COc1cc(-c2cc3n(C)c(C)c(CCC(=O)O)c(=O)n3n2)cc(OC)c1OC` the value was inactive: 2.72%; for `CCCn1c(CN2CCN(c3ccc(OC)cc3)CC2)nc2c1c(=O)[nH]c(=O)n2C`, inactive: -10.9%.
Turning to `Cn1c(=O)c2c(ncn2CC2OCCO2)n(C)c1=O`, the “activation” value was inactive: -15.5%.
Then `O=C(Nc1ccc2oc(-c3cc(Br)ccc3Cl)nc2c1)c1cc2ccccc2o1`, with inactive: -17%.
Then `CC(C)CC(=O)Nc1nnc(S(=O)(=O)N(CC(C)C)c2ccccc2)s1`, with inactive: 5.25%; and `Cc1cc2oc(C(=O)Nc3ccc(S(=O)(=O)N(C)Cc4ccccc4)cc3)cc(=O)c2cc1C`, with inactive: -18.5%.
